Measured values taken from the supplement of paper PMC4967469.

How the values were obtained:
Assay in all cases: Viability of human cancer cell lines after 72 h of drug (GDSC screen)
Obatoclax mesylate = compound: COC1=CC(c2cc3ccccc3[nH]2)=N/C1=C\c1[nH]c(C)cc1C [Obatoclax mesylate]; conditions: top dose 16 µM
Protocol: (§1)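 Human cancer cell lines in 384-well plates, medium with 10% serum, drug for 72 h over a 256-fold dose range (nine 2-fold or five 4-fold steps up to the top dose). Adherent lines were fixed and stained with the nucleic acid dye Syto60, suspension lines read with resazurin; signal relative to control wells, capped at 0 and 100%. One two-parameter sigmoid per drug and line, fitted in a mixed model over all curves with the slope shared within a line.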

CP724714 = compound: COCC(=O)NC/C=C/c1ccc2ncnc(Nc3ccc(Oc4ccc(C)nc4)c(C)c3)c2c1 [CP724714]; conditions: top dose 10.24 µM; top dose inferred
Protocol: as §1

STF-62247 = compound: Cc1cccc(Nc2nc(-c3ccncc3)cs2)c1 [STF-62247]; conditions: top dose 10.24 µM; top dose inferred
Protocol: as §1

CX-5461 = compound: Cc1cnc(CNC(=O)c2c(=O)c3ccc(N4CCCN(C)CC4)nc3n3c2sc2ccccc23)cn1 [CX-5461]; conditions: top dose 10.24 µM; top dose inferred
Protocol: as §1

| Cell Line | AUC (Obatoclax mesylate) | IC50 (Obatoclax mesylate) [µM] | AUC (CP724714) | IC50 (CP724714) [µM] | AUC (STF-62247) | IC50 (STF-62247) [µM] | AUC (CX-5461) | IC50 (CX-5461) [µM] |
| --- | --- | --- | --- | --- | --- | --- | --- | --- |
| CAKI-1 (kidney, adherent) | 0.58 | 1.84 | 0.942 | > 10.2 | 0.938 | > 10.2 | 0.904 | > 10.2 |
| CAL-12T (non-small cell lung carcinoma, adherent) | 0.075 | < 0.0625 | 0.909 | > 10.2 | 0.928 | > 10.2 | 0.618 | 1.41 |
| CAL-27 (head and neck, adherent) | 0.128 | 0.0635 | 0.946 | > 10.2 | 0.984 | > 10.2 | 0.898 | > 10.2 |
| CAL-29 (bladder, adherent) | 0.606 | 2.01 | 0.968 | > 10.2 | 0.985 | > 10.2 | 0.98 | > 10.2 |
| CAL-33 (head and neck, adherent) | 0.398 | 0.524 | 0.96 | > 10.2 | 0.985 | > 10.2 | 0.917 | > 10.2 |
| CAL-39 (cervix, adherent) | 0.28 | 0.231 | 0.983 | > 10.2 | 0.986 | > 10.2 | 0.808 | 5.55 |
| CAL-51 (breast, adherent) | 0.115 | 0.0743 | 0.984 | > 10.2 | 0.991 | > 10.2 | 0.984 | > 10.2 |
| CAL-54 (kidney, adherent) | 0.534 | 1.25 | 0.985 | > 10.2 | 0.985 | > 10.2 | 0.985 | > 10.2 |
| CAL-62 (thyroid, adherent) | 0.091 | < 0.0625 | 0.988 | > 10.2 | 0.984 | > 10.2 | 0.953 | > 10.2 |
| CAL-72 (osteosarcoma, adherent) | 0.277 | 0.205 | 0.984 | > 10.2 | 0.982 | > 10.2 | 0.984 | > 10.2 |
| CAL-78 (chondrosarcoma, adherent) | 0.758 | 6.3 | 0.986 | > 10.2 | 0.971 | > 10.2 | 0.97 | > 10.2 |
| CAL-85-1 (breast, adherent) | 0.088 | < 0.0625 | 0.924 | > 10.2 | 0.915 | > 10.2 | 0.599 | 1.29 |
| CAL-120 (breast, adherent) | 0.298 | 0.227 | 0.98 | > 10.2 | 0.976 | > 10.2 | 0.917 | > 10.2 |
| CAMA-1 (breast, adherent) | 0.37 | 0.397 | 0.961 | > 10.2 | 0.952 | > 10.2 | 0.962 | > 10.2 |
| CAPAN-1 (pancreas, adherent) | 0.416 | 0.573 | 0.986 | > 10.2 | 0.987 | > 10.2 | 0.81 | 6.16 |
| CCF-STTG1 (glioma, adherent) | 0.44 | 0.685 | 0.988 | > 10.2 | 0.983 | > 10.2 | 0.985 | > 10.2 |

| Cell Line | AUC (Obatoclax mesylate) | IC50 (Obatoclax mesylate) [µM] | AUC (CP724714) | IC50 (CP724714) [µM] | AUC (STF-62247) | IC50 (STF-62247) [µM] | AUC (CX-5461) | IC50 (CX-5461) [µM] |
| --- | --- | --- | --- | --- | --- | --- | --- | --- |
| CCK-81 (large intestine, adherent) | 0.619 | 2.09 | 0.958 | > 10.2 | 0.979 | > 10.2 | 0.75 | 3.18 |
| CFPAC-1 (pancreas, adherent) | 0.236 | 0.15 | 0.976 | > 10.2 | 0.984 | > 10.2 | 0.977 | > 10.2 |
| CHL-1 (melanoma, adherent) | 0.144 | 0.0852 | 0.851 | 7.14 | 0.987 | > 10.2 | 0.73 | 2.77 |
| CHP-212 (neuroblastoma, adherent) | 0.166 | 0.107 | 0.981 | > 10.2 | 0.988 | > 10.2 | 0.87 | 8.33 |
| CHSA0011 (chondrosarcoma, adherent) | 0.79 | 10.5 | 0.976 | > 10.2 | 0.966 | > 10.2 | 0.962 | > 10.2 |
| CHSA0108 (chondrosarcoma, adherent) | 0.622 | 2.29 | 0.976 | > 10.2 | 0.926 | > 10.2 | 0.979 | > 10.2 |
| COLO-205 (large intestine, suspension) | 0.104 | < 0.0625 | 0.979 | > 10.2 | 0.988 | > 10.2 | 0.94 | > 10.2 |
| COLO-678 (large intestine, semi-adherent) | 0.68 | 3.71 | 0.984 | > 10.2 | 0.983 | > 10.2 | 0.985 | > 10.2 |
| COLO-679 (melanoma, adherent) | 0.127 | < 0.0625 | 0.977 | > 10.2 | 0.984 | > 10.2 | 0.965 | > 10.2 |
| COLO-680N (oesophagus, adherent) | 0.193 | 0.0994 | 0.986 | > 10.2 | 0.986 | > 10.2 | 0.986 | > 10.2 |
| COLO-783 (melanoma, adherent) | 0.759 | 5.4 | 0.984 | > 10.2 | 0.99 | > 10.2 | 0.991 | > 10.2 |
| COLO-792 (melanoma, adherent) | 0.213 | 0.146 | 0.949 | > 10.2 | 0.978 | > 10.2 | 0.986 | > 10.2 |
| COR-L23 (large cell lung carcinoma, adherent) | 0.164 | 0.0977 | 0.966 | > 10.2 | 0.954 | > 10.2 | 0.589 | 1.11 |
| COR-L105 (lung adenocarcinoma, adherent) | 0.313 | 0.265 | 0.913 | > 10.2 | 0.901 | > 10.2 | 0.902 | > 10.2 |
| CP50-MEL-B (melanoma, adherent) | 0.188 | 0.118 | 0.978 | > 10.2 | 0.973 | > 10.2 | 0.988 | > 10.2 |

Lines with a small IC50 respond at low doses; a limit (>, <) means that the fit lies beyond the doses tested. The AUC spans the tested range (256-fold, ending at the top dose) of the same fit; values near 1 show little effect. For some assays here: A top dose marked as inferred comes from the curve model; the source does not state it.
